# Source: the supplement of paper PMC3334620
# Whole data set: some 33,000 sequences, median “E-score (-0.5 to 0.5)” near -0.012, cut for the highest 2% near 0.27. Some of the results follow.
# Target: T1, Vhr1 (UniProt P40522)
# T1 sequence: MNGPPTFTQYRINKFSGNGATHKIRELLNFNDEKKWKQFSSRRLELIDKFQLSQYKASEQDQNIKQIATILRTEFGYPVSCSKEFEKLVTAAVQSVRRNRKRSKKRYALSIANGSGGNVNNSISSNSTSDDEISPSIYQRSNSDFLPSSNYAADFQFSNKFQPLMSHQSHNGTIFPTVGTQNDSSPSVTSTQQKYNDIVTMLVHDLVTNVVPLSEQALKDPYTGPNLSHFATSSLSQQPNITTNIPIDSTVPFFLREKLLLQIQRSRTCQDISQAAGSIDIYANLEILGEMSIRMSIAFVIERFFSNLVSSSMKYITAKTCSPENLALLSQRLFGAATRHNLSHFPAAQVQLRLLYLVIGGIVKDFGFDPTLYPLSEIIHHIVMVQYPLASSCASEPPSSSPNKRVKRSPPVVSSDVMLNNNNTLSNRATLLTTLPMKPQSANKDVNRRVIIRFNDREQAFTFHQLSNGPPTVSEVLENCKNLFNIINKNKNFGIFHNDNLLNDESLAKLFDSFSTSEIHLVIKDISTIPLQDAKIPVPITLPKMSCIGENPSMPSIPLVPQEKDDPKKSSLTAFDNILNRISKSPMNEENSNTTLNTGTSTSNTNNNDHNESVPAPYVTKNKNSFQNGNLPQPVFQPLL
# Assay: PBM E-score (8-mer binding enrichment) (E-score (-0.5 to 0.5)); higher = stronger / more preferred TF binding; most listed sequences are background and not binding sites
# Settings: protein concentration: 200 nM; construct: GST-full length
# How it was run: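 Each ungapped eight-base word and its reverse complement, pooled, received an E-score from the Universal PBM Analysis Suite. Underlying scans, normalised with masliner, recorded fluorescent anti-GST bound to GST-tagged yeast transcription factors. These were applied at about 100-200 nM to universal all-10-mer Agilent arrays double-stranded by primer extension.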
row,Sequence,PBM E-score
1,GCCTCGGA,-0.121
2,ACACACAT,0.275
3,GACTCTCA,0.271
4,CAGATAGC,-0.11
5,GGCCGGGA,0.00327
6,TACGTCTA,-0.145
7,AGGTCGTC,-0.00709
8,AATCACAT,0.17
9,AAGTACTT,-0.168
10,GCTGCGAA,-0.015
11,CGACACAA,0.134
12,ACACAGCC,0.232
13,GGTTCTTA,-0.0254
14,AGATCACT,0.077
15,GCTAGGAC,-0.117
16,TCCCTCAA,-0.26
17,ACGTGTCG,-0.101
18,GATTCGGA,0.162
19,ATGGTCGC,0.146
20,CATTGGCC,-0.134
21,GGATATAA,0.227
22,CCTACCCA,-0.0337
23,CATCTAGA,0.0398
24,TGTTAACA,0.0688
25,ACTTTTAG,-0.193

row,Sequence,PBM E-score
1,ACATAAGC,-0.101
2,GTGCACCA,-0.0256
3,ATACTCAG,0.274
4,CCATGATA,0.102
5,AGAGACCT,-0.196
6,GGCGTGAC,0.0985
7,GATGCCGA,-0.0335
8,GCTGGAGA,-0.112
9,AACATCCT,0.0517
10,AGACGGCT,-0.0175
11,GCCGGGTA,0.0324
12,ACACTTGC,0.0493
13,GTATAACA,0.138
14,GCTGAGAC,0.0972
15,CGAGCTAA,-0.0732
16,AGGCCTAT,-0.312
17,GCTAATGA,-0.101
18,GATGCAAA,-0.139
19,GCGGTCCA,-0.158
20,GAGGTCAA,-0.0724
21,GAAGAGGC,-0.0818
22,ATCCAACC,0.0162
23,AGCGTAGG,-0.0366
24,CGTCCGGC,-0.0491
25,AAACCGGT,-0.14

row,Sequence,PBM E-score
1,CCGGTTCA,-0.0875
2,CTAGCATA,-0.0867
3,GATAACTA,0.182
4,AACCCGTA,-0.103
5,CTGAGCGC,-0.0109
6,AAGGAGTC,0.203
7,CGGAAGGA,-0.029
8,ACTGATAC,0.0766
9,ATTGACAC,0.00527
10,AAATCTGC,-0.104
11,GCTCGCCC,0.108
12,ATGGTTCA,0.366
13,CCTTAGAA,-0.267
14,GTTCACAA,0.0201
15,CTTGATCC,0.106
16,AAATGGTA,0.13
17,AAAATGCC,-0.414
18,ACACCCTG,0.117
19,AATTCTCG,-0.0319
20,CCCCCGTC,-0.223
21,GGCATCTA,-0.0577
22,GGACGTCA,-0.096
23,ATTCTTAG,-0.158
24,ACAAACTA,0.159
25,AATGTAAT,0.118

row,Sequence,PBM E-score
1,AGAACGCC,-0.131
2,CCGCGTCC,0.0398
3,GATTAACC,-0.0165
4,AATGCAAA,-0.0769
5,GGCATGAA,-0.0315
6,GCTATCAA,0.11
7,AGGTTATG,0.0825
8,CGCGCGTA,0.0934
9,AACAAATC,0.0441
10,TGTCTCAA,-0.0653
11,GTCTACCA,-0.149
12,TATACCAA,0.171
13,AGTTCTCA,0.0774
14,CGGCGAAG,-0.136
15,GTATTGAA,0.0354
16,AAAAAATA,-0.112
17,TCTGGCAA,-0.189
18,GCTACTCC,-0.145
19,CTGTAAAA,-0.122
20,ACAGTATA,0.11
21,AGCTCGAT,0.237
22,GATCTGGA,0.0234
23,GAAGCTAA,-0.215
24,CGCAGGCA,0.0774
25,ATACGTAA,-0.0869

row,Sequence,PBM E-score
1,CCAACCAG,0.127
2,CAAATGGG,0.0359
3,GGAGCCAC,0.165
4,ACTATTAT,0.153
5,ACTGGTTC,0.0182
6,CCGCTGCG,-0.00887
7,ATGGTCTC,0.00212
8,ATCGAGCA,-0.00467
9,CCGACACG,0.0261
10,ATGGGTGA,0.322
11,CTCTCTAC,-0.103
12,GGGCACCA,-0.177
13,CGGTCGCA,-0.104
14,GTTCCACA,-0.103
15,CACGCCGA,0.163
16,AATCCGGG,0.0326
17,ACCCTGTC,-0.0143
18,AGTAAGTA,0.0778
19,CGGTCCCA,-0.0802
20,CCGGCGAA,0.0401
21,AATAGATA,0.12
22,GTCACGTA,0.13
23,CTCGCGAG,0.14
24,AATGTTGT,0.0078
25,CTCTCCCC,-0.0438

row,Sequence,PBM E-score
1,CGTCACGA,0.00392
2,CGGCTACA,0.153
3,GCTTTTCA,-0.241
4,AGGCACTC,-0.0419
5,ACCCGAAC,0.0967
6,ATGGTACA,0.228
7,AGGGGTTG,0.0767
8,TGCGACAA,-0.00077
9,GAAGAAGC,-0.107
10,ATTAGGGG,-0.162
11,CGCCCCCA,-0.127
12,GCTACTAA,-0.0624
13,ATAGCATA,0.161
14,GCCGGGGA,-0.0234
15,GGAGCCAA,-0.135
16,AACGCGGA,-0.0374
17,AGGTACAC,0.0298
18,TAGACCCA,0.0873
19,CACCCACA,0.241
20,CCACGGGA,-0.0899
21,GATTATCC,0.0985
22,CCGCCAGG,-0.139
23,CAGTGAGC,0.0804
24,TCCTCCCA,-0.181
25,AGGAAGGG,-0.35

row,Sequence,PBM E-score
1,CTCTAGCA,-0.196
2,AATCTTGG,-0.0367
3,CGGCCGTA,-0.0427
4,ACTGTAGC,-0.0776
5,AAAAAAAA,0.0125
6,GGTAACGA,0.168
7,ACGTATGA,0.155
8,ACGATTTA,0.113
9,GGAATCCA,0.0687
10,CGGGGCAC,-0.14
11,CCGGAATC,0.259
12,CTACGGCC,-0.264
13,CGTTCCCC,0.0185
14,TGAATGCA,0.0567
15,ACCCTACA,0.0564
16,CCGCAGGC,-0.012
17,CATTCGAC,0.16
18,AAGCAGAA,-0.123
19,AATTGGGC,-0.208
20,CCTAGTGC,-0.00138
21,AAGCCACT,-0.0197
22,ACCCCTCC,0.0742
23,ACGAGACT,-0.0664
24,CTAGCAAA,0.00326
25,AAGGAGAT,-0.0121

row,Sequence,PBM E-score
1,AATATCAT,0.208
2,TCCACAAA,-0.124
3,ACTCAACT,0.141
4,AATCCTAA,-0.00704
5,AGACAGTA,0.0953
6,AGGGGTAG,-0.00777
7,GATTTTCA,-0.158
8,GAAAGCTA,-0.131
9,AACGTCTG,-0.0772
10,AGTAAACT,0.0362
11,AAATAGGT,0.0511
12,GCGGACGA,-0.029
13,ACCTGAAG,-0.228
14,AGCGCGTA,0.0158
15,TGCATACA,0.13
16,CGGTACTA,-0.0942
17,GTAGTCTA,0.129
18,CTACTAAG,-0.074
19,ATCCCGAA,0.112
20,TAAATTGA,0.0232
21,AATGTTCT,-0.191
22,AGAGCATG,0.0582
23,AATCGTTG,0.105
24,AGAGGGAA,-0.305
25,CCGCAACC,0.0158

row,Sequence,PBM E-score
1,AAGTCATG,0.41
2,CACTGAGA,0.00705
3,AAATGAGA,-0.186
4,ACACATTC,0.205
5,CGGCAGAG,-0.137
6,GGATGATA,0.0626
7,AACTCTAA,-0.211
8,CTGGCCAG,-0.11
9,CTCTAAAC,-0.268
10,GCGAGCAA,-0.12
11,CATTAGCC,-0.187
12,AGCCGACC,-0.147
13,CCACTGAA,0.0261
14,CGTTGAAA,-0.226
15,ACGAGATG,0.0566
16,ATGCGATG,0.0889
17,GCGTAAAA,-0.0856
18,GCTCTCTA,-0.215
19,TCACCAAA,0.112
